Screen size: about 220,000 compounds; about 5,700 (2.6%) were called active. Inconclusive results, whose numbers are uncertain, are shown with a selection of clear calls. The call rests on the fitted dose curve; in most records, active means well fitted inhibition curve with a large enough effect; inconclusive means small, poorly fitted or top-dose-only effect; inactive means no such curve, though single readings can be large or run the other way. A potency beside an inconclusive call is a rough fit, not a confirmed value.
molecular target: Lysine-specific demethylase 5B (Homo sapiens) (UniProt Q9UGL1); assay: Primary screen for KDM5B Histone Demethylases FDH-coupled qHTS; settings: FDH-coupled NADH fluorescence (FDH is formaldehyde dehydrogenase); activity change, negative = inhibition: at 57.7 µM (top of the series) unless noted; further: nearly all actives have a fitted effect of over 70% in size; on activity change, negative = inhibition: 0% is about no effect
Sequence of UniProt Q9UGL1 (Q9UGL1 whole entry, looked up): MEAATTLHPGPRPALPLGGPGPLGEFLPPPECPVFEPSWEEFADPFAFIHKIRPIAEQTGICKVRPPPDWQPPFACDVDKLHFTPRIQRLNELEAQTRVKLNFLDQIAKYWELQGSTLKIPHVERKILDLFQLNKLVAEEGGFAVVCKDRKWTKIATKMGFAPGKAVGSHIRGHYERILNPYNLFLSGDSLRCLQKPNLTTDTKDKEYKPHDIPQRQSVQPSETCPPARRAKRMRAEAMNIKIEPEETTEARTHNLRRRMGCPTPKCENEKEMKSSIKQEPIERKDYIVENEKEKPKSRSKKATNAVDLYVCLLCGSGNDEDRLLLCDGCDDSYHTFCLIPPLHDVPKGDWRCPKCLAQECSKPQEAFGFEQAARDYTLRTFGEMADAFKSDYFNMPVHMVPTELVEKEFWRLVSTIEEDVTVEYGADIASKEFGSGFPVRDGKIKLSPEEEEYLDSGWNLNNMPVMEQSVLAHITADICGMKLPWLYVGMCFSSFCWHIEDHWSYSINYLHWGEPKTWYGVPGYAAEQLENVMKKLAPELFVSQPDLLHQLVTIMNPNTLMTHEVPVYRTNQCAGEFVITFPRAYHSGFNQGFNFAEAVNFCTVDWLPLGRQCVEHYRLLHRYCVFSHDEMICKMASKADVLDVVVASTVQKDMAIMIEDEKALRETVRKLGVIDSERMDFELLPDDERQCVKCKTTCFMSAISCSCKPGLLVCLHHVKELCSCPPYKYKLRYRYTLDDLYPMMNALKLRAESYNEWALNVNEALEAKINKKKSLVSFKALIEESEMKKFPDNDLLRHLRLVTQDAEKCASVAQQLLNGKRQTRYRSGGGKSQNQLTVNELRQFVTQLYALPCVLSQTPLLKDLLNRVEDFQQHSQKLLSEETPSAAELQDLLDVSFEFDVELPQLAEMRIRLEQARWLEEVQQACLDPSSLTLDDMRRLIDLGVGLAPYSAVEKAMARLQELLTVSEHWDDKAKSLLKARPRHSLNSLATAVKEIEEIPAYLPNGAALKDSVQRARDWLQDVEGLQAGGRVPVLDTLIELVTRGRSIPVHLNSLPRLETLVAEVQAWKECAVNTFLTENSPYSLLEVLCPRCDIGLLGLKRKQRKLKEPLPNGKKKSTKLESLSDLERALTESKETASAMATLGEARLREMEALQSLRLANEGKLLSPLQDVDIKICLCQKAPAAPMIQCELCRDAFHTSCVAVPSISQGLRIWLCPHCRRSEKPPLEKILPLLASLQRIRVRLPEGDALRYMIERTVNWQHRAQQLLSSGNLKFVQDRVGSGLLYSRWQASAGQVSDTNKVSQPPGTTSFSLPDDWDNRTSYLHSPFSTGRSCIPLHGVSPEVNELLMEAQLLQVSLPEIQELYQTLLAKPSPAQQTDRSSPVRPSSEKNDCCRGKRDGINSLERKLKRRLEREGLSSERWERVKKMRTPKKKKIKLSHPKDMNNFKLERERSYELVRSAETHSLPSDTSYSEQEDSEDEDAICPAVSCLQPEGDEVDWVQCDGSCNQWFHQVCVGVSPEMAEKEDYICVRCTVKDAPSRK
Method in brief: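 KDM5BΔAP (200 nM final) in 50 mM HEPES pH 7.5, 0.01% Tween-20 was preincubated 10 min at RT with compound over a concentration range. Substrate mix (H3K4me3 12.5 µM, α-KG 25 µM, Fe²⁺, ascorbate, NAD⁺, FDH) was added, and NADH fluorescence change over 30 min gave dose-response curves.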
Potency means the concentration at half of the fitted maximal effect; tags describe the fitted curve by direction and shape.

Compound | Potency | activity change, negative = inhibition
CCn1c2c(c(=O)n1Cc1ccccc1)CCN(Cc1nccs1)C2 | inconclusive: 56.2 µM [inhibitor, partial curve, poor fit] | 
COCC(=O)N1CCCC(c2nc(-c3cccnc3)no2)CCNC(=O)CC1 (stereo not given) | inconclusive: 25.1 µM [inhibitor, partial curve, poor fit] | 
Cc1ccc(N(C(=O)c2snc(C(N)=O)c2N)C(C(=O)NC2CCCC2)c2ccncc2)cc1 (stereo not given) | inconclusive: 25.1 µM [inhibitor, partial curve, poor fit] | 
O=C(NCc1ccc(F)cc1Cl)c1noc(-c2ccc3c(c2)OCO3)n1 | active: 31.6 µM | 
Cc1ccc2c(c1)C(C[C@H]1CN(C(=O)CC(C)(C)C)CC[C@H]1CC(=O)O)=NCC2 | inconclusive: 31.6 µM [inhibitor, partial curve, poor fit] | 
O=C(Cc1ccccc1Cl)NC1CCN(c2cc(-c3cccs3)[nH]n2)C1 (stereo not given) | inconclusive: 11.2 µM [inhibitor, partial curve] | 
COc1ccc(NC(=O)c2c(NCc3cccc(F)c3)sc3c2CCCC3)c(OC)c1 | inconclusive: 15.8 µM [inhibitor, partial curve, poor fit] | 
O=C1Nc2cc(Cl)ccc2C(=O)N2CC[C@H](NS(=O)(=O)c3cccs3)[C@@H]12 |  | inactive: -10.7% [at 86.2 µM]
Cc1cc2nc(-c3cccc(NC(=O)COc4ccc(Cl)c(C)c4)c3)oc2cc1C | inconclusive: 20 µM [inhibitor, partial curve, poor fit] | 
Cc1ccc(Cl)cc1-n1ncc2c(N3CCC(C)CC3)ncnc21 | inconclusive: 31.6 µM [inhibitor, single point] | 
COCCNC(=O)c1cc(-c2ccc(OC)cc2)nc2ccccc12 | inconclusive: 22.4 µM [inhibitor, partial curve, poor fit] | 
CCCCN(C)Cc1cccc(OC)c1OC | inconclusive: 28.2 µM [inhibitor, partial curve, poor fit] | 
COc1ccc(CN2CCOc3nc(-c4cc5ccccc5o4)ncc3C2=O)cc1 | active: 31.6 µM | 
Cc1ccccc1N1Cc2c(NCc3ccc(F)cc3)ncnc2N(C)CC1=O | inconclusive: 35.5 µM [inhibitor, partial curve, poor fit] | 
Cc1nnc([C@@H]2CC(F)(F)CN2C(=O)c2nccc3ccccc23)o1 |  | inactive: 14.5%
COc1cc(/C=N/NC(=O)c2ccc(Cl)c(S(N)(=O)=O)c2)ccc1OCC(N)=O | inconclusive: 31.6 µM [inhibitor, single point] | 
CCc1ccc2occ(CC(=O)N(Cc3ccc(F)cc3)C3CCS(=O)(=O)C3)c2c1 (stereo not given) |  | inactive: 6.75%
Cc1cccc(CN2CCCC3(CCN(c4cc(C)c5ccccc5n4)C3)C2=O)c1 (stereo not given) | active: 28.2 µM | 
Cc1ccc(-c2nc(S(=O)(=O)c3ccc(C)cc3)c(N3CCCCCC3)o2)cc1 | inconclusive: 1.12 µM [inhibitor, full curve, poor fit] | 
CC(C)c1nc(NCC2CCCO2)c(C#N)c2c1CCCC2 (stereo not given) | inconclusive: 28.2 µM [inhibitor, partial curve, poor fit] | 
Cc1ccccc1CSc1nc2cccnc2n1Cc1ccc(C(=O)NC2CC2)cc1 | inconclusive: 35.5 µM [inhibitor, single point] | 
Cc1ccc(/C=N/Nc2ccc(Cl)c(Cl)c2)c(C)c1 | inconclusive: 35.5 µM [inhibitor, partial curve, poor fit] | 
COc1cccc(Nc2ncc3c(n2)C(C)(C(=O)NC2CCOCC2)CC3)c1 (stereo not given) |  | inactive: -0.867% [at 86.2 µM]
CCOC(=O)CC(NC(=O)CCc1c(C)nc2ncnn2c1C)c1ccc(OC(C)C)cc1 (stereo not given) | inconclusive: 25.1 µM [inhibitor, single point] | 
O=C(NC1CCCc2ccccc21)c1cc(Cl)nc(Cl)c1 (stereo not given) |  | inactive: 6.13%
CCOC(=O)C1(Cc2cccc(Cl)c2)CCCN(C(=O)c2csc(C(C)=O)c2)C1 (stereo not given) |  | inactive: 2.73%
CCCc1noc(CCC(=O)Nc2ccc(OC)c(OC3CCCC3)c2)n1 |  | inactive: 3.19%
COc1ccccc1CNC(=O)c1ccc(N2CCCC2)c(NC(=O)NCc2ccc(F)cc2)c1 | inconclusive: 17.8 µM [inhibitor, partial curve, poor fit] | 

Compound | Potency | activity change, negative = inhibition
COc1ccc(OC)c(NS(=O)(=O)c2cc(C(=O)N3CCCCC3)cs2)c1 |  | inactive: 13.9%
Cc1sc(N2CCCC2)nc1-c1ccc(NS(C)(=O)=O)cc1 |  | inactive: -20.4%
Cc1ccccc1Cn1cccc1CNC(=O)NC12CC3CC(CC(C3)C1)C2 |  | inactive: -7.53%
O=C(Cn1ncc2c3ccccc3n(Cc3ccccc3F)c2c1=O)N1CCCCC1 | inconclusive: 25.1 µM [inhibitor, partial curve, poor fit] | 
COc1cccc(NC(=O)Cn2c(N3CCN(c4ccccc4)CC3)nc(C)cc2=O)c1 |  | inactive: -6.49%
CCN1CCN(c2nc3ccccn3c(=O)c2/C=C(\C#N)S(=O)(=O)c2ccccc2)CC1 | inconclusive: 1 µM [inhibitor, full curve, poor fit] | 
COc1ccc(S(=O)(=O)N(CC(=O)Nc2cccc(C)c2)c2ccc(C)cc2)cc1OC | inconclusive: 25.1 µM [inhibitor, partial curve, poor fit] | 
CN1CCCN(C(=O)Cc2cccs2)c2ccccc21 | inconclusive: 22.4 µM [inhibitor, partial curve] | 
Cc1ccc2ccc3cc(C(=O)N4CCN(c5ccccc5)CC4)nc3c2[nH]1 | inconclusive: 44.7 µM [inhibitor, single point] | 
Cn1c(=O)c2c(nc(SCC(=O)N3CCOCC3)n2Cc2ccccc2F)n(C)c1=O |  | inactive: 8.91%
CCOc1ccc(S(=O)(=O)N2CCSC2c2ccc(OC)c(Br)c2)cc1 (stereo not given) |  | inactive: -5%
COc1ccc(-c2cc(C(F)(F)F)n3nc(C(=O)NCC45CC6CC(CC(C6)C4)C5)cc3n2)cc1OC | inconclusive: 15.8 µM [inhibitor, partial curve, poor fit] | 
CCOC(=O)c1ccccc1NC(=O)N1CCOc2ccc(Cl)cc21 | inconclusive: 28.2 µM [inhibitor, partial curve, poor fit] | 
Cc1cc(Cl)ccc1NC(=O)C1CCN(c2nnc(-n3c(C)ccc3C)s2)CC1 | inconclusive: 17.8 µM [inhibitor, partial curve, poor fit] | 
CCOC(=O)C(C)Oc1ccc2c(=O)c(Oc3ccc(OCC)cc3)c(C)oc2c1 (stereo not given) |  | inactive: 5.92%
CCCn1nc(C(=O)Nc2ccc(Cl)cc2)c2ccccc2c1=O |  | inactive: 20.6%
COc1cccc(Cn2c(=O)c3ccnn3c3ccc(C(=O)O)cc32)c1 | inconclusive: 14.1 µM [inhibitor, partial curve, poor fit] | 
O=C(c1n[nH]c2c1CCCC2)N1CCC2(CC1)NC(=O)N(c1ccc(F)cc1)N2 | inconclusive: 14.1 µM [inhibitor, single point] | 
CCCCN(C)CCNC(=O)c1ccc2c(c1)NC(=O)CN2 | inconclusive: 17.8 µM [inhibitor, partial curve, poor fit] | 
CC(C)(C)c1coc([C@@H]2COCCN2Cc2cnc[nH]2)n1 | inconclusive: 28.2 µM [inhibitor, partial curve] | 
CCCCN(C)C(=O)Cn1nc(C)c2sc(-c3ccccc3)nc2c1=O | active: 28.2 µM | 
O=C(NC1CCOC2(CCOCC2)C1)c1cnc2c(O)cccn2c1=O (stereo not given) | active: 31.6 µM | 
Cc1ccc(-c2ccc3c(N)c(C(=O)Nc4cccc(C)c4)sc3n2)cc1 | inconclusive: 39.8 µM [inhibitor, single point] | 
Cc1ccc2c(c1)-c1c(c(C(=O)N3CCN(c4cc(Cl)ccc4C)CC3)nn1C)CS2 | inconclusive: 28.2 µM [inhibitor, partial curve, poor fit] | 
CC(CNC(=O)CCS(=O)(=O)c1ccc2c(c1)oc(=O)n2C)c1ccccc1 (stereo not given) |  | inconclusive: -48.6% [inhibitor] [at 11.5 µM]
O=c1cc(CN2CCN(c3cccc(Cl)c3)CC2)c2cc(Cl)c(O)cc2o1 | inconclusive: 22.4 µM [inhibitor, partial curve, poor fit] | 
O=C(CCCc1ccccc1)N1CCC2(CC1)CN(C1CCC1)CC2CO (stereo not given) | inconclusive: 12.6 µM [inhibitor, partial curve] | 

Reference: PubChem BioAssay AID1347165 (National Center for Advancing Translational Sciences (NCATS), 2019)
